# Data taken from PubChem BioAssay AID686979 (National Center for Advancing Translational Sciences (NCATS), 2013).
# Hit rate of the full screen: of about 420,000 compounds, about 50,000 (12%) were called active. The shares of active, inactive and inconclusive entries below differ from those in the screen. Calls come from the whole dose curve; as a rule, active = well fitted inhibition curve with a large enough effect; inconclusive = small, poorly fitted or top-dose-only effect; inactive = flat fitted curve, though single readings scatter. Potencies of inconclusive entries are left out as doubtful fits.
# Assay: qHTS for Inhibitors of human tyrosyl-DNA phosphodiesterase 1 (TDP1): qHTS in cells in presence of CPT; note: nearly all actives have a fitted effect of over 55% in size
# Conditions: chicken DT40 Tdp1-/-;hTDP1 cells + 20 nM CPT, ATP luminescence, 48 h; activity change, negative = growth inhibition: at 46.2 µM (top of the series)
# How it was run: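 Chicken DT40 Tdp1-/- cells complemented with human TDP1, 400 cells/well, exposed to compounds plus 20 nM camptothecin for at least 48 h at 37 C; viability read as ATP content by CellTiter-Glo luminescence.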
# % is set by controls: 0 for no effect and ±100 for the full control effect; potency is the fitted concentration of half-maximal effect; tags give direction and shape of the fitted curve.
Compound,Potency,"activity change, negative = growth inhibition"
NC(=O)C1(NC(=O)[C@@H]2CC3(CC(c4cccc(NC(=O)[C@@H]5CCC(=O)N5)c4)=NO3)CN2C(=O)c2cnccn2)CC1 (stereo partly specified),inactive,–
CCOc1cccc(-c2nnc3sc(-c4cccs4)nn23)c1,active: 14.6 µM,–
O=C(Nc1ccccc1C(F)(F)F)c1noc2c1CCCC2,"inconclusive [inhibitor, partial curve]",–
Cc1c(C(=O)N2CCc3ccccc3C2)sc2nc(-c3ccccc3)cn12,"inconclusive [inhibitor, single point]",–
Cc1ccc(NC(=O)Cn2c(=O)n(-c3ccccc3)c(=O)c3ccc(C(=O)NCc4ccc5c(c4)OCO5)cc32)cc1,–,inconclusive: -31.8% [inhibitor]
CCOc1cc(OCC)cc(C(=O)N2CCC[C@@H]2C(=O)N2CCC[C@H]2C(=O)NCc2ccncc2)c1,inactive,–
COc1ccc(C(=O)NCC(c2ccco2)N2CCc3ccccc3C2)c(OC)c1 (stereo unspecified),active: 23.1 µM,–
CCN(C(=O)Cn1cc(S(=O)(=O)N2CCN(c3ccccc3F)CC2)c2ccccc2c1=O)c1ccc(C)c(C)c1,"inconclusive [inhibitor, partial curve]",–
Cc1ccccc1N(C=O)c1ccccc1C,inactive,–
CCC(CO)Oc1cc(NCc2cccc(C)c2)c2ncn(C(C)C)c2c1 (stereo unspecified),active: 20.6 µM,–
CCN(CC(=O)NCc1cccs1)C(=O)c1ccc(S(=O)(=O)Nc2cccc(C)c2C)cc1,"inconclusive [inhibitor, single point]",–
COc1ccc(CN(CCCn2cnc3c(OC)ncnc32)CCCn2cnc3c(OC)ncnc32)cc1,"inconclusive [inhibitor, partial curve]",–
[N-]=[N+]=CC(=O)c1ccnc(C(=O)C=[N+]=[N-])c1,"inconclusive [inhibitor, single point]",–
COc1ccccc1-c1noc2ncnc(Nc3ccccc3C)c12,active: 23.1 µM,–
CCOC(=O)c1cc(-c2ccc(N3CCOCC3)cc2)nn1-c1ccc(F)cc1F,"inconclusive [inhibitor, single point]",–
Cc1ccc(Nc2nc(CSc3nnc(-c4ccccc4C)n3C)cs2)cc1,"inconclusive [inhibitor, partial curve, poor fit]",–
CNc1nc(-c2cccnc2)nc2ccccc12,"inconclusive [inhibitor, single point]",–
O=C(COc1ccc(Cl)cc1)Nc1ccc2nc(SCC(=O)N3CCOCC3)sc2c1,"inconclusive [inhibitor, single point]",–
CCOc1ccc(C(=O)NC2CC(=O)N(c3ccc4c(c3)OCCO4)C2)cc1 (stereo unspecified),inactive,–
CCCNC(=O)N1c2ccccc2Sc2ccccc21,inactive,–
Cc1ccc(-c2nnc(Nc3ccc4c(c3)OCO4)c3ccccc23)cc1S(=O)(=O)NCCO,"inconclusive [inhibitor, single point]",–
COc1ccc(C(=O)Nc2ccc(S(=O)(=O)Nc3onc(C)c3C)cc2)c(OC)c1,inactive,–
O=C(COC(=O)Cc1c(Cl)cccc1Cl)NCc1ccccc1,"inconclusive [inhibitor, partial curve, poor fit]",–
CC1Cc2ccccc2N1S(=O)(=O)c1c(N)n(C)c(=O)n(C)c1=O (stereo unspecified),inactive,–

Compound,Potency,"activity change, negative = growth inhibition"
CCn1ccc2cc(S(=O)(=O)N3CCC(C(=O)NCC(C)c4ccccc4)CC3)ccc21 (stereo unspecified),active: 23.1 µM,–
COC(=O)c1ccccc1N/C=C/C(=O)c1ccc(Br)cc1,inactive,–
Cc1nnc2c3ccccc3nc(Nc3ccccc3C(=O)O)n12,"inconclusive [inhibitor, single point]",–
COc1ccc(N2C[C@H](CSC)[C@@H](CC(=O)Nc3ccc(Br)cc3)C2=O)cc1,"inconclusive [inhibitor, single point]",–
Cc1ccc(S(=O)(=O)N2CCN(c3ccnc4cc(Cl)ccc34)CC2)cc1,active: 23.1 µM,–
Cc1ccc(-n2ncc(C(=O)NCc3ccccn3)c2C2CCN(C(=O)OC(C)(C)C)CC2)cc1C,"inconclusive [inhibitor, single point]",–
COc1cccc(CNC(=O)C2CCN(Cc3cc4ccccc4n3Cc3ccccc3)CC2)c1OC,"inconclusive [inhibitor, single point]",–
CCN(CC)C(=O)c1ccc(N)cc1,inactive,–
Cc1ccc(NC(=O)c2ccco2)cc1C,"inconclusive [inhibitor, single point]",–
CCOC(=O)/C(=C\Nc1ccccc1C(F)(F)F)Sc1ncc(C(F)(F)F)cc1Cl,"inconclusive [inhibitor, single point]",–
Cc1ccc(Cl)cc1NC(=O)c1nnn(Cc2ccccc2)c1N,"inconclusive [inhibitor, partial curve]",–
CCCCCC(=O)N1C[C@@H](O)[C@H](n2cc(C3CC3)nn2)C[C@@H]1c1ccccc1,"inconclusive [inhibitor, partial curve]",–
C=CCN1C=CC(=O)CC1,inactive,–
CCOC(=O)c1c(NC(=O)CC)sc2c1CCN(Cc1ccccc1)C2,"inconclusive [inhibitor, single point]",–
CC(Oc1ccccc1)C(=O)N1CCN=C1SCc1ccc(F)cc1 (stereo unspecified),"inconclusive [inhibitor, single point]",–
Fc1ccc(Cn2c(-c3cscn3)nc3ccccc32)c(Cl)c1,"inconclusive [inhibitor, single point]",–
CC1CCC(NC(=O)CCC(=O)N2CC(C)Oc3ccccc32)CC1 (stereo unspecified),"inconclusive [inhibitor, partial curve]",–
Cc1ccc(-n2c(O)c(C=NC3CCS(=O)(=O)C3)c3ccccc3c2=O)cc1 (stereo unspecified),–,inconclusive: -30.1% [inhibitor]
COc1ccc(C)cc1NS(=O)(=O)c1ccc2c(c1)N(C)CCO2,"inconclusive [inhibitor, single point]",–
CSc1ccccc1OCc1cc(C(=O)N2CCC[C@H]2C(N)=O)no1,inactive,–
CC(C)C(=O)Nc1cccc(C(=O)Nc2nccs2)c1,"inconclusive [inhibitor, partial curve]",–
COc1cccc(C(=O)O/N=C(\N)Cc2ccc(Cl)cc2)c1,"inconclusive [inhibitor, single point]",–
O=C(OCC(=O)N1N=C(c2ccc(Cl)cc2)CC1c1ccco1)c1cncc(Br)c1 (stereo unspecified),"inconclusive [inhibitor, single point]",–
CCOC(=O)c1cccc(NC(=O)CSc2cc(=O)n(C)c3ccccc23)c1,active: 20.6 µM,–

Compound,Potency,"activity change, negative = growth inhibition"
Cc1ccc(NC(=O)C2(C)CCN2C(=O)CCC2CCCC2)cc1C (stereo unspecified),"inconclusive [inhibitor, single point]",–
O=C(Nc1ccncc1)C1CCCN(S(=O)(=O)c2cccc3cccnc23)C1 (stereo unspecified),active: 1.84 µM,–
Cc1ccsc1C(=O)N1CCCC(C)(C(=O)NS(=O)(=O)C2CC2)C1 (stereo unspecified),inactive,–
CCCN1CNc2c(c(=O)[nH]c(=S)n2CCc2c(Cl)cccc2Cl)C1,active: 15.8 µM,–
CN(C(=O)/C=C/c1ccc([N+](=O)[O-])s1)c1ccccc1,active: 10.3 µM,–
Cc1ccc(CN2c3ccccc3-c3nc(SCC(=O)NCCc4ccccc4)ncc3S2(=O)=O)cc1,"inconclusive [inhibitor, full curve]",–
O=[N+]([O-])c1ccccc1/C=C/c1ccc2ccccc2n1,inactive,–
CC(=O)c1c(C)[nH]c(C(=O)OCC(=O)c2ccc(Br)cc2)c1C,"inconclusive [inhibitor, single point]",–
Cc1nn(-c2ccc3ccccc3c2)c(=O)c2ccccc12,"inconclusive [inhibitor, single point]",–
O=C(Nc1ccc(C(F)(F)F)cc1)c1cc(S(=O)(=O)N2CCCc3ccccc32)ccc1F,active: 7.31 µM,–
COC(=O)c1ccccc1NC(=O)CNc1ccc(F)c(S(=O)(=O)N2CCOCC2)c1,inactive,–
O=C(O)c1ccc(COc2ccccc2/C=C2\NC(=O)N(Cc3ccccc3F)C2=O)cc1,"inconclusive [inhibitor, single point]",–
COc1cccc(-c2cc(C(=O)N/N=C/c3ccc(OC)c(COC(C)=O)c3)c3ccccc3n2)c1,active: 8.2 µM,–
c1ccc(CCc2ccccc2-c2nc(-c3cccnc3)no2)cc1,"inconclusive [inhibitor, single point]",–
CCCNc1nc(=S)n(-c2ccccc2)c(C)c1C(C)=O,inactive,–
COc1ccccc1NC(=O)Nc1nc(C(N)Cc2ccc(Cl)cc2)cs1 (stereo unspecified),active: 9.2 µM,–
COC(=O)c1cc(NC(=O)CN(c2ccccc2OC)S(=O)(=O)c2ccccc2)ccc1Cl,"inconclusive [inhibitor, single point]",–
Cc1nn(C)cc1C(C)NC(=O)c1cc(COc2cccc3cnccc23)on1 (stereo unspecified),active: 10.3 µM,–
O=C(Nc1ccccc1C(F)(F)F)N1CCN(c2ccccn2)CC1,inactive,–
COc1cccc(NS(=O)(=O)c2ccc3c(c2)NC(=O)C(C)S3)c1 (stereo unspecified),"inconclusive [inhibitor, single point]",–
O=C(Nc1ccc(F)cc1F)N1CCN(C/C=C/c2ccccc2)CC1,"inconclusive [inhibitor, single point]",–
COc1ccccc1N1CCN(CCCNC(=O)C2CCCN(c3ncnc4c3nc3n4CCCCC3)C2)CC1 (stereo unspecified),"inconclusive [inhibitor, single point]",–
NC(=O)C1CCN(C(=O)/C(=C/c2ccccc2)NC(=O)c2ccccc2)CC1,inactive,–
